From ChEMBL document CHEMBL4888484, “Replenishing the malaria drug discovery pipeline: Screening and hit evaluation of the MMV Hit Generation Library 1 (HGL1) against asexual blood stage Plasmodium falciparum ,using a nano luciferase reporter read-out” (2022)
In all, about 150,000 compounds went through this assay and about 540 (0.36%) showed an effect of 50% or more. The list shows a part of the results.

Test system: Plasmodium falciparum
Assay: Primary screen in NF54 nanoGlo assay, in single point, at 2uM, 72h; a lower Z score goes with more inhibition
Format: functional, Erythrocyte
Settings: timepoint 72 hour

SMILES | % Inhibition [%] | Z score
C[C@@H]1NC(=O)N(c2ccccc2NC(=O)c2cc(Cl)cn2C)C1=O | -10 | 1.67
COc1ccc(-c2nc(CN3CC[C@H](NC(C)=O)C3)c(C)o2)c2ccccc12 | -21 | 2.72
CC1CCCCC1NC(=O)c1cccc(N(C)C)c1 (centres undefined) | -8 | 1.21
CC(C)(C)OC(=O)N1CCC[C@H]1C(=O)Nc1cccc2ccccc12 | 1 | -0.12
c1ccc(-c2ccc(-c3n[nH]cc3CN3CCC(N4CCOCC4)CC3)cc2)cc1 | 7 | -0.84
CCn1nnc2cc(-c3nc(C4CC4)no3)ccc21 | -6 | 0.8
O=C(c1ccc(-c2ccsc2)cc1)N1CCCNCC1 | 1 | -0.18
Cc1ccc2c(Nc3ccc(C(C)C)cc3)c(C(=O)N3CCCC3)cnc2n1 | -6 | 1.15
CCOc1ccc(NC(=O)c2ccoc2COc2ccccc2)cc1 | 7 | -0.9
COCCN(C)Cc1nc(-c2ccc(F)c(F)c2)nn1CCO | -6 | 1.19
O=C(c1cn2c(n1)CCCC2)N1CCN(c2cccc(Cl)c2)CC1 | -4 | 0.71
COc1ccc(C(C)C)cc1CN1CCN(C(C)=O)[C@H]2CS(=O)(=O)C[C@H]21 | 5 | -0.64
OCCOc1cncc(N2CCc3ccccc3CC2)n1 | -8 | 0.78
O=C(N[C@@H]1[C@H]2CCO[C@H]2[C@H]1Cc1ccccc1)c1n[nH]c2c1CCCC2 | -1 | 0.21
Cc1ccccc1NC(=O)N1C[C@H]2CC[C@@H](C1)N(Cc1c(C)noc1C)C2=O | -10 | 1.22
O=C(Cn1c2c(c(=O)n(C3CCCCC3)c1=O)CCC2)Nc1cccc(F)c1 | -4 | 0.69
Cc1[nH]c2ccccc2c1C1CCN(C(=O)CN2CCCC2=O)CC1 | -7 | 0.94
O=C(c1ccc2c(c1)OCCO2)N1C[C@@H](CO)C[C@@H](CN2CCOCC2)C1 | -11 | 1.08
CCn1cnnc1C[C@H]1CCN(S(=O)(=O)Cc2ccccc2F)C1 | 6 | -1.06
COc1cc(CN2CCCN(c3ccc(C)cc3NC(=O)OCc3ccccc3)C2=O)cc(OC)c1 | -5 | 0.79
O=C(Cc1ccc(Cl)c(Cl)c1)N(Cc1ccco1)[C@H]1CCS(=O)(=O)C1 | -4 | 0.55

SMILES | % Inhibition [%] | Z score
CCc1ocnc1C(=O)N1CCOC[C@@H]1CCOC | 0 | -0.03
O=c1ccc(C(F)(F)F)nn1Cc1nnnn1-c1ccccc1 | 2 | -0.22
FC(F)(F)c1ccccc1CCn1cnnc1 | -12 | 1.99
CN(Cc1ccc2c(ccn2C)c1)C1CCS(=O)(=O)CC1 | -9 | 1.01
Cc1[nH]nc(CCC(=O)N[C@@H](C)c2nc(-c3ccncc3)no2)c1C | 5 | -0.45
Cc1nc(N)nc(C)c1C(=O)N1CC[C@@]12CCOC2 | 5 | -1.07
O=C([C@@H]1COc2ccccc2O1)N1CCOc2ccc(N3CCCC3)cc2C1 | -4 | 0.81
O[C@H]1CN(c2ncnc3ccsc23)C[C@@H]1N1CCN(c2ccccn2)CC1 | -2 | 0.16
O=C(COc1cc(C(F)F)nc2ccc(Cl)cc12)NC1CC1 | -16 | 1.59
CCc1ccc(-c2cc(C)no2)cc1S(=O)(=O)N1CC[C@H](c2cc(OC)ccc2OC)C1 | -2 | 0.33
Cc1cncc(C(=O)N[C@@H]2CN(c3ccncn3)C[C@H]2CO)c1 | -21 | 3.05
CCN1C[C@]2(CCCN(C(=O)c3ccn(C(F)F)n3)C2)CCC1=O | -10 | 1.28
O=C(N[C@H]1Cc2cccc(O)c2C1)c1cccc2c1CCOC2 | -2 | 0.32
CCCN(c1cc(C#N)ncn1)C1CC1 | -14 | 1.93
Cc1nc(N2CCN(C(=O)COc3ccc(Cl)cc3Cl)CC2)cc(C(F)(F)F)n1 | -17 | 2.16
C#CCCC1(CCC(=O)N2CCOCC2C2CCCN2C)N=N1 (centres undefined) | -1 | 0.21
N[C@@H]1CCN(C(=O)CCCOc2cccc(Cl)c2Cl)C1 | -9 | 1.71
CC(C)(C(=O)Nc1cc(F)c(C#N)cc1F)C(F)F | 1 | -0.16
N#CCC(=O)N1CCOCC(F)(F)C1 | 0 | -0.02
CCCc1cc(C(=O)N(CCO)Cc2nccn2C)no1 | 6 | -1.13
CC(C)Cc1cc(C(=O)N2C[C@H]3CC=CC[C@H]3C2)on1 | -5 | 0.98
